Where two headings read alike, the source gives them in different places. Values belong to the molecule of their own block, whether it stands above or below them.
Columns and labels:
[1] = biological target: T1, human dopamine transporter (hDAT) (Homo sapiens, UniProt Q01959); test: Inhibition of [125I]RTI-55 binding in HEK-hDAT cell membranes; parameters: expressed in transfected cells
[2] = biological target: human norepinephrine transporter (hNET) (Homo sapiens, UniProt P23975); test: Inhibition of radioligand binding in HEK-hNET cell membranes; parameters: expressed in transfected cells
[3] = biological target: T1, human dopamine transporter (hDAT); test: cell-based; conditions: for Ki: Reuptake (Kr, nM) hDAT, Table 1
[4] = Table 1, read-out: Binding (Ki, nM) hDAT
[5] = Table 1, read-out: Binding (Ki, nM) hNET
[6] = read-out: Binding (Ki, nM) hDAT
[7] = Table 2, read-out: Binding (ki, nM) hDAT
[8] = Table 2, read-out: Binding (ki, nM) hNET

T1 sequence (Q01959 whole entry): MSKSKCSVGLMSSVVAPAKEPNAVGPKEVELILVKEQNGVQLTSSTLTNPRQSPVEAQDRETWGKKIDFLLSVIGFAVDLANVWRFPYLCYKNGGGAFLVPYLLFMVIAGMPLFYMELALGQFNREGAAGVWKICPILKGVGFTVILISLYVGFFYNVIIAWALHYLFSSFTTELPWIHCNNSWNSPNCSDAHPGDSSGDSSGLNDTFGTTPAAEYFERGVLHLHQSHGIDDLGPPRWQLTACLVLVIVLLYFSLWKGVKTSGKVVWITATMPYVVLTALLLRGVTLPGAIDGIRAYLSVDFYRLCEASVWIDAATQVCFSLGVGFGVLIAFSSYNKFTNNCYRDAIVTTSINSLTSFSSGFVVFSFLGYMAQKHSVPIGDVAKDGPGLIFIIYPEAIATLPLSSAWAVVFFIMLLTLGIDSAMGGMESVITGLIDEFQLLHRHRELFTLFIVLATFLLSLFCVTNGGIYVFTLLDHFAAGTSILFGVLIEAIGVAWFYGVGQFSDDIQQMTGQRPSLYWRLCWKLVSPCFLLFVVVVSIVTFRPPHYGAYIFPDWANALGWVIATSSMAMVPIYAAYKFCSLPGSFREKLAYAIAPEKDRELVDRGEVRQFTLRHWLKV
UniProt P23975, sequence (P23975 whole entry): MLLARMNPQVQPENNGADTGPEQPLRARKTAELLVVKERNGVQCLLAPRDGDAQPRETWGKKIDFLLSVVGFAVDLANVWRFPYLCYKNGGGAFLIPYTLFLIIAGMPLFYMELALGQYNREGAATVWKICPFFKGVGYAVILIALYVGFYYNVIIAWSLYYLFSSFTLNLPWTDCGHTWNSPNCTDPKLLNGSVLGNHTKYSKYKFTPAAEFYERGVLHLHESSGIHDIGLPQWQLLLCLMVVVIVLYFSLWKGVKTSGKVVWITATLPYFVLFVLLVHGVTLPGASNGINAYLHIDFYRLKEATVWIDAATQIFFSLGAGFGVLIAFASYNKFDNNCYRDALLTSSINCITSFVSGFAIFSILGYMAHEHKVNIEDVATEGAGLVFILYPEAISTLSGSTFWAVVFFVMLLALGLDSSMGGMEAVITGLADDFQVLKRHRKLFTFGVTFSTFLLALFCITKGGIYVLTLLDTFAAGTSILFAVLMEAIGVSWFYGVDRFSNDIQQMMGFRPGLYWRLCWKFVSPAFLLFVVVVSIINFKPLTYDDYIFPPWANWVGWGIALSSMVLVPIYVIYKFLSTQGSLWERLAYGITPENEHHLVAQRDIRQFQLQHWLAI

- Ki [1, 4]: 3140 nM
- Ki [2, 5]: 363 nM
SMILES: COc1ccc(F)cc1[C@@H]1CC[C@H](CCNCCc2ccccc2)O1 (relative stereo) [Cis-2-Phenethyl-aminoethyl)-5-(2′-methoxy-5′-fluorophenyl) tetrahydrofuran]

SMILES: COc1ccc(F)cc1CC[C@H]1CC[C@H](CN)O1 (relative stereo) [Compound 18i, Trans-2-(aminomethyl)-5-(2′-methoxy-5′-fluorophenethyl)tetrahydrofuran]
- IC50 [3]: 8.55 µM

SMILES: COc1ccc(F)cc1CC[C@@H]1CC[C@H](CN)O1 (relative stereo) [Compound 18j, Cis-2-(aminomethyl)-5-(2′-methoxy-5′-fluorophenethyl)tetrahydrofuran]
- IC50 [3]: 34.3 µM
- Ki ([1]; Binding (Ki, nM) hDAT): 30300 nM

SMILES: COc1ccc(F)cc1[C@@H]1CC[C@H](CCN)O1 (relative stereo) [cis-2-(aminoethyl)-5-(2′-methoxy-5′-fluorophenyl) tetrahydrofuran]
- Ki [3]: > 10000 nM
- Ki [1, 4]: > 10000 nM

SMILES: COc1ccc(F)cc1C[C@@H]1CC[C@H](CN)O1 (relative stereo) [cis-2-(aminomethyl)-5-(5′-fluoro-2′-methoxybenzyl) tetrahydrofuran]
- Ki [1, 6]: 97200 nM

- Ki [1, 4]: 484000 nM
- Ki [2, 5]: 93400 nM
SMILES: NC[C@@H]1CC[C@@H](c2ccccn2)O1 (relative stereo) [trans-2-(aminomethyl)-5-(2′-pyridyl) tetrahydrofuran.]

- Ki [1, 4]: 62200 nM
- Ki [2, 5]: 19900 nM
SMILES: NC[C@@H]1CC[C@@H](c2cnc3ccccc3c2)O1 (relative stereo) [trans-2-(aminomethyl)-5-(3′-quinoline) tetrahydrofuran]

SMILES: COc1ccc(F)cc1[C@H]1CC[C@H](CN)O1 (stereo in doubt) [Compound 18a, Trans-2-aminomethyl-5-(2′-methoxy-5′-fluorophenyl)tetrahydrofuran]
- IC50 [3]: > 10 µM
- Ki ([1]; Binding (Ki, nM) hDAT): > 10000 nM

SMILES: COc1ccc(F)cc1C[C@H]1CC[C@H](CN)O1 (stereo in doubt) [Compound 18e, Trans-2-aminomethyl-5-(2′-methoxy-5′-fluorophenylmethyl)tetrahydrofuran]
- Ki ([1]; Binding (Ki, nM) hDAT): 27200 nM

SMILES: COc1ccc(F)cc1CCC[C@H]1CC[C@H](CN)O1 (stereo in doubt) [Compound 18m, Trans-2-aminomethyl-5-((2″-methoxy-5″-fluorophenyl)-3′-propyl)tetrahydrofuran]
- Ki ([1]; Binding (Ki, nM) hDAT): 7330 nM

- Ki [3]: > 10000 nM
SMILES: COc1ccc(F)cc1[C@@H]1CC[C@@H](CCN)O1 (stereo in doubt) [trans-2-(aminoethyl)-5-(2′-methoxy-5′-fluorophenyl) tetrahydrofuran]

SMILES: COc1ccc(F)cc1C[C@@H]1CC[C@@H](CN)O1 (stereo in doubt) [trans-2-(aminomethyl)-5-(5′-fluoro-2′-methoxybenzyl) tetrahydrofuran]
- Ki ([1]; Binding (Ki, nM) hDAT): 27200 nM

- Ki [1, 4]: 7330 nM
SMILES: COc1ccc(F)cc1CCC[C@@H]1CC[C@@H](CN)O1 (stereo in doubt) [trans-2-amino-methyl-5-((2″-methoxy-5″- fluorophenyl)-3′-propyl)tetra-hydrofuran]

- Ki [1, 4]: 63700 nM
- Ki [2, 5]: 22700 nM
SMILES: NCC1CCC(c2cnc3ccccc3c2)O1 (stereo not shown) [2-(amino-methyl)-5-(3′-quinoline) tetrahydrofuran]

- Ki [1, 4]: > 10000 nM
- Ki [2, 5]: > 10000 nM
SMILES: NCC1CCC(CCc2ccc(F)cc2)O1 (stereo not shown) [2-(amino-methyl)-5-(4′-fluorophenethyl) tetrahydrofuran]

SMILES: NCCC1CCC(c2ccco2)O1 (stereo not shown) [2-(aminoethyl)-5-(2′-furyl)tetra-hydrofuran]
- Ki [1, 4]: 89400 nM
- Ki ([2]; Binding (Ki, nM) hNET): 50600 nM

- Ki [1, 4]: 8840 nM
- Ki [2, 5]: 5630 nM
SMILES: Cc1ccc(CCC2CCC(CCN)O2)cc1F (stereo not shown) [2-(aminoethyl)-5-(3′-fluoro-4′-methylphenethyl) tetrahydrafuran]

- Ki [1, 4]: > 10000 nM
- Ki [2, 5]: > 10000 nM
SMILES: NCCC1CCC(c2ccc(Br)cc2)O1 (stereo not shown) [2-(aminoethyl)-5-(4′-bromophenyl) tetrahydrofuran]

- Ki [1, 4]: > 10000 nM
- Ki [2, 5]: > 10000 nM
SMILES: NCCC1CCC(c2ccc(F)cc2)O1 (stereo not shown) [2-(aminoethyl)-5-(4′-fluorophenyl) tetrahydrofuran]

SMILES: NCCC1CCC(CCc2ccncc2)O1 (stereo not shown) [2-(aminoethyl)-5-(4′-pyridylethyl) tetrahydrofuran,]
- Ki [1, 4]: 55200 nM
- Ki [2, 5]: 13300 nM

- Ki [1, 4]: > 10000 nM
- Ki [2, 5]: > 10000 nM
SMILES: CC(C)(C)c1ccc(C2CCC(CCN)O2)cc1 (stereo not shown) [2-(aminoethyl)-5-(4′-t-butylphenyl) tetrahydrofuran]

- Ki [1, 4]: > 10000 nM
- Ki [2, 5]: > 10000 nM
SMILES: NCCC1CCC(C2CCCCC2)O1 (stereo not shown) [2-(aminoethyl)-5-cyclohexyl tetrahydrofuran,]

- Ki [2, 5]: > 10000 nM
SMILES: NCCC1CCC(c2ccccc2)O1 (stereo not shown) [2-(aminoethyl)-5-phenyltetrahydro-furan]

- Ki [1, 4]: > 10000 nM
- Ki [2, 5]: 9460 nM
SMILES: NCC1CCC(CCc2cc(C(F)(F)F)ccc2Cl)O1 (stereo not shown) [2-(aminomethyl)-5-(2′-chloro-5′-trifluoromethyl) phenethyl)tetra-hydrouran]

- Ki [1, 4]: > 10000 nM
- Ki [2, 5]: > 10000 nM
SMILES: COc1ccc2ccccc2c1CCC1CCC(CN)O1 (stereo not shown) [2-(aminomethyl)-5-(2′-methoxy-1′-napheyhyl) tetrahydrofuran]

SMILES: COc1ccc(F)cc1C1CCC(CN)O1 (stereo not shown) [2-(aminomethyl)-5-(2′-methoxy-5′-fluorophenyl) tetrahydrofuran]
- Ki [3]: > 10000 nM

- Ki [1, 4]: 7920 nM
- Ki [2, 5]: 8640 nM
SMILES: COc1ccc(CCC2CCC(CN)O2)cc1OC (stereo not shown) [2-(aminomethyl)-5-(3′,4′di-methoxy-phenethyl) tetrahydrofuran]

- Ki [1, 4]: 146000 nM
- Ki [2, 5]: 57400 nM
SMILES: NCC1CCC(CCc2ccncc2)O1 (stereo not shown) [2-(aminomethyl)-5-(4′-pyridylethyl) tetrahydrofuran]

- Ki [3]: 4590 nM
SMILES: NCC1CCC(CCc2c(F)c(F)c(F)c(F)c2F)O1 (stereo not shown) [2-(aminomethyl)-5-(pentafluoro-phenethyl) tetrahydrofuran]

SMILES: COc1ccc(F)cc1C1CCC(CN)O1 (stereo not shown) [2-(aminomethyl)- 5-(2′-methoxy-5′- fluorophenyl) tetrahydrof] [2-(aminomethyl)-5-(2′-methoxy-5′-fluorophenyl) tetrahydrofuran]
- Ki [1, 6]: 42800 nM

SMILES: COc1ccc(F)cc1CCCC1CCC(CCN)O1 (stereo not shown) [2-aminoethyl-5- ((2″-methoxy-5″- fluorophenyl)-3′- propyl)te] [2-aminoethyl-5-((2″-methoxy-5″- fluorophenyl)-3′-propyl)tetra-hydrofuran]
- Ki [1, 6]: 7310 nM

SMILES: COc1ccc(F)cc1CCCC1CCC(CCN)O1 (stereo not shown) [2-aminoethyl-5-((2″-methoxy-5″- fluorophenyl)-3′-propyl)tetra-hydrofuran]
- Ki [3]: 17000 nM

- Ki [1, 4]: 3350 nM
- Ki [2, 5]: 589 nM
SMILES: COc1ccc(F)cc1C1CC[C@@H](CCNCCc2ccccc2)O1 (stereo partly drawn) [Cis-2-(Phenethyl-aminoethyl)-5-(2′-methoxy-5′-fluorophenyl) tetrohydrofuran]

SMILES: COc1ccc(F)cc1C1CCC(CN)O1 (stereo not shown) [Compound 18b, 2-Aminomethyl-5-(2′-methoxy-5′-fluorophenyl)tetrahydrofuran]
- Ki [1, 6]: 42800 nM

- Ki [1, 7]: 2390 nM
- Ki [2, 8]: 727 nM
SMILES: COc1ccc(F)cc1C[C@H]1CC[C@H](CCNCC[C@@H]2CC[C@@H](Cc3cc(F)ccc3OC)O2)O1 [N,N-Bis (trans-5′-(2″- methoxy-5″-fluoro-benzyl-2′-tetrahydro-furyl)-2-ethyl)amine]

- Ki [1, 7]: 36 nM
- Ki [2, 8]: 92 nM
SMILES: Oc1ccc(CCC2CCC(CCNCCC3CCC(CCc4ccc(O)cc4)O3)O2)cc1 (stereo not shown) [N,N-bis (5′-(p-hydroxy-phenethyl)-2′-tetra-hydrofuryl-ethyl) amine]

- Ki [1, 7]: 8890 nM
- Ki [2, 8]: > 10000 nM
SMILES: CC(C)(C)c1ccc(C2CCC(CCNCCC3CCC(c4ccc(C(C)(C)C)cc4)O3)O2)cc1 (stereo not shown) [N,N-bis (5′-(p-t-butyl-phenyl)-2′-tetra-hydro-furyl-ethyl) amine]

- Ki [1, 7]: 5960 nM
- Ki [2, 8]: 8430 nM
SMILES: C1CCC(C2CCC(CCNCCC3CCC(C4CCCCC4)O3)O2)CC1 (stereo not shown) [N,N-bis (5′-cyclo-hexyl-2′-tetra-hydro-furyl-ethyl) amine]

- Ki [1, 7]: 5510 nM
- Ki [2, 8]: > 10000 nM
SMILES: COc1ccc2ccccc2c1CCC1CCC(CCNCCC2CCC(CCc3c(OC)ccc4ccccc34)O2)O1 (stereo not shown) [N,N-bis(5′-(2″- methoxy-1″-naphth-ethyl)-2′-tetra-hydrofuryl-ethyl) amine]

- Ki [1, 7]: 9330 nM
- Ki [2, 8]: 1620 nM
SMILES: c1cc(CCC2CCC(CCNCCC3CCC(CCc4ccncc4)O3)O2)ccn1 (stereo not shown) [N,N-bis(5′-(4″- pyridyl-ethyl)-2′-tetrahydro-furyl-ethyl) amine]

- Ki [1, 7]: 5670 nM
- Ki [2, 8]: > 10000 nM
SMILES: COc1ccc(CCC2CCC(CCNCCC3CCC(CCc4ccc(OC)c5ccccc45)O3)O2)c2ccccc12 (stereo not shown) [N,N-bis(5′-(4″-meth-oxy-1″-naphth-ethyl)-2′-tetrahydro-furyl-ethyl) amine]

- Ki [1, 7]: 236 nM
- Ki [2, 8]: 507 nM
SMILES: COc1ccc(F)cc1CCC1CCC(CCNCCC2CCC(CCc3cc(F)ccc3OC)O2)O1 (stereo not shown) [N,N-bis(5′-(5″-fluoro-2″- methoxy-phenethyl)-2′-tetrahydrofurylethyl) Amine]

- Ki [1, 7]: 474 nM
- Ki [2, 8]: 4100 nM
SMILES: Cc1ccc(CCC2CCC(CCNCCC3CCC(CCc4ccc(C)c(F)c4)O3)O2)cc1F (stereo not shown) [N,N-bis(5′-(m-fluoro-p-methyl-phenethyl)-2′-tetrahydro-furylethyl) amine]

- Ki [1, 7]: 443 nM
- Ki [2, 8]: 2690 nM
SMILES: Brc1ccc(C2CCC(CCNCCC3CCC(c4ccc(Br)cc4)O3)O2)cc1 (stereo not shown) [N,N-bis(5′-(p-bromo-phenyl)-2′-tetra-hydrofuryl-ethyl) Amine]

- Ki [1, 7]: 1440 nM
- Ki [2, 8]: 682 nM
SMILES: COc1ccc(F)cc1C[C@H]1CC[C@@H](CCNCC[C@H]2CC[C@@H](Cc3cc(F)ccc3OC)O2)O1 [N,N-bis(cis-5′-(2″- methoxy-5″-fluoro-benzyl-2′-tetrahydro-furyl)-2-ethyl) amine]

Source: US20130123253A1, “MODULATORS OF CENTRAL NERVOUS SYSTEM NEUROTRANSMITTERS” (HUMAN BIOMOLECULAR RESEARCH INSTITUTE, priority 2004, published 2013)
